Data from PubChem BioAssay AID1645882 (National Center for Advancing Translational Sciences (NCATS), 2021).
The whole screen tested about 16,000 compounds, of which about 120 (0.75%) were called active. Roughly 4% stayed inconclusive and do not appear here. Calls follow the shape of the dose curve; as a rule, active = well fitted inhibition curve with a large enough effect; inconclusive = small, poorly fitted or top-dose-only effect; inactive = no such curve, though single readings can be large or run the other way. The list shows a part of the results.

molecular target: Rap guanine nucleotide exchange factor 3 (Homo sapiens) (UniProt O95398); assay: Validation qHTS for antagonist of cAMP-regulated guanine nucleotide exchange factor 3 (EPAC1); settings: EPAC1 Rap1B-BODIPY-GDP exchange, fluorescence; series mostly up to 150 µM; activity change, negative = inhibition: at the top concentration; also: nearly all actives have a fitted effect of over 75% in size
UniProt O95398, sequence (O95398 whole entry, looked up): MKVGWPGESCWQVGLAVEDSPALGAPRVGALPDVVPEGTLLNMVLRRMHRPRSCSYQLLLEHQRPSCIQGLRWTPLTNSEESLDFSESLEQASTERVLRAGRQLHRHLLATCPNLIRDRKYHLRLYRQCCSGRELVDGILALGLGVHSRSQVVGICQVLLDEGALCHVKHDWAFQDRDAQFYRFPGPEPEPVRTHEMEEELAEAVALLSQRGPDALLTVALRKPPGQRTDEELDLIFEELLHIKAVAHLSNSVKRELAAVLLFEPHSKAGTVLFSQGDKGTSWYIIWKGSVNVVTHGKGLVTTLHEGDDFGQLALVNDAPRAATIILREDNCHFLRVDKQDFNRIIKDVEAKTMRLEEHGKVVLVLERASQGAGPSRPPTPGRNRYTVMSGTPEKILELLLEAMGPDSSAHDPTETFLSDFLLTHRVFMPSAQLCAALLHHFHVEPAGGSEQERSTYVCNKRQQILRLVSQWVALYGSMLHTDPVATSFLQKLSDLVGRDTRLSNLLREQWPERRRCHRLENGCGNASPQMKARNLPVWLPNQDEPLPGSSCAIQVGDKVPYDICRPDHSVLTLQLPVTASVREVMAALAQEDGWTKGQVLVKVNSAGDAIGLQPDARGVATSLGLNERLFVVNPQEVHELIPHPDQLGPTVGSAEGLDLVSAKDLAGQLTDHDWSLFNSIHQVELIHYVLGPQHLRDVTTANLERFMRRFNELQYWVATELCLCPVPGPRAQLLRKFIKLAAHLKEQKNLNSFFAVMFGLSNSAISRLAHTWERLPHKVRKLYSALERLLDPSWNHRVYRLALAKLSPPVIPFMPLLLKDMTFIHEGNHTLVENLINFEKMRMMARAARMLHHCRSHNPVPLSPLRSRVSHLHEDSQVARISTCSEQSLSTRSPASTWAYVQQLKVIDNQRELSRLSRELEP
How it was run: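 EPAC1 (100 nM) mixed with 250 nM RAP1B-BODIPY-GDP and 50 uM GDP; compounds in concentration series, 5 min at room temperature. Fluorescence (ex 480/em 540 nm) read every 5 min for 30 min; normalized to ATA control and DMSO.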

Activity change, negative = inhibition, inactive:
c1ccc2c(c1)OCC(CN1CCCCC1)O2 (stereo not given) 7.22%
COc1ccccc1CN1CCC2(CC1)c1ccccc1[C@@H](NC(=O)c1ccco1)[C@@H]2OC 18%
Cc1nc2sccn2c1CN1Cc2ccccc2OC(c2ccccc2F)C1 (stereo not given) 10.2%
C[C@@H]1Nc2ccc(Cl)cc2S(=O)(=O)N1 -13.7%
CCCCCCCCCCCCCC(=O)OCC(COP(=O)([O-])OCC[N+](C)(C)C)OC(=O)CCCCCCCCCCCCC (stereo not given) 12.9%
N#Cc1ccccc1OCC(O)CNCCNC(=O)Nc1ccccc1 (stereo not given) 13.4%
Cc1nc2cnc(N(C)C)nc2n(C2CC2)c1=O 21.5%
Cc1ncc[nH]1 7.29%
N#CCCn1c(=O)c(-c2ccc(F)cc2)nc2cnc(N3CCNCC3)nc21 1.52%
NCCC[C@H](N)C(=O)O 4.72%
Clc1ccc(C(Cn2ccnc2)OCc2c(Cl)cccc2Cl)c(Cl)c1 (stereo not given)
COc1ccc2c(c1)OCc1c-2oc2cc(OC)ccc12 12.1%
COc1c(O[C@@H]2O[C@H](CO)[C@@H](O)[C@H](O)[C@H]2O)cc2c(c1OC)-c1ccc(SC)c(=O)cc1[C@@H](NC(C)=O)CC2 9.92% [at 75.8 µM]
Cn1cccc1C(=O)N1CCC2(CCCN(c3ccncc3)C2)CC1 -0.457%
COc1ccc(C(=O)NCC2Cc3c(F)ccc(-c4nc(C)cnc4C)c3O2)cc1F (stereo not given) 7.89%
NC(CO)(CO)CO 27.1%
CCn1c(-c2cccc(OC)c2)nc2cc(NC(C)=O)cc(C(=O)N(C)CC3COCCO3)c21 (stereo not given) 13%
O=S(=O)(c1ccccc1)N1CCC2(CCCN(Cc3ccccc3)C2)CC1 2.17%
CCC(Oc1ccccc1)C(=O)N[C@@H]1C(=O)N2[C@@H]1SC(C)(C)[C@@H]2C(=O)O (stereo not given in full) 13.5%
CN(C)Cc1ccccc1-c1ccc2ncnc(NCc3cccs3)c2c1 17.7%
COc1ccc(Oc2ncc3ncc(=O)n(C)c3n2)cc1 9.6%
Cc1ccc(-c2nn(CC(C)(C)C)c3ncnc(N)c23)cc1 4.82%
COc1ncc2nc(-c3ccc(F)cc3)c(=O)n(C3CC3)c2n1 2.02%
CCOC(=O)C1OC1C(=O)NC(CC(C)C)C(=O)NCCC(C)C (stereo not given) 26% [at 201 µM]
CC(C)C(=O)NCC1CCC2(CCN(Cc3ccc(-c4cccc(Cl)c4)o3)CC2)O1 (stereo not given) 3.9%
C[C@@H](CCCCC(=O)Nc1ccc(C(F)(F)F)cc1)NCCc1cnc[nH]1 5.07%
CN(C)CCN(Cc1cccs1)c1ccccn1
O=C(c1ccc2c(c1)OCO2)N(Cc1cc2cc3c(cc2nc1N1CCOCC1)CCC3)CC1CCCO1 (stereo not given) 21.6%
COCCn1c(=O)c(-c2cccc(C#N)c2)nc2cnc(N3CCNCC3)nc21 2.44%
CN1CCN(c2ncc3nc(-c4cn(C)c5ccccc45)c(=O)n(CCc4ccccc4)c3n2)CC1 21.3%
O=c1cc(-c2ccccc2O)oc2ccc3ccccc3c12 17.3%
CC(=O)OCC(COC(C)=O)OC(C)=O
Cc1ccccc1N=C(N)Nc1ccccc1C
COc1ccccc1-c1cncnc1Nc1ccc(F)cc1 14%
Cc1cccc2cc(CN(CC3CCCO3)C(=O)c3cccc(F)c3)c(N(C)C)nc12 (stereo not given) 4.32%
CC1CCC2=C1C[C@H](C(C)(C)O)CC[C@@H]2C (stereo not given in full) 5.61%
O=C(O)C[C@H]1c2ccccc2S(=O)(=O)N1C1CCCCC1 12.9%
COc1cccc(Cn2c(=O)c(CCc3ccccc3)nc3cncnc32)c1 -6.53%
COc1ccc(-c2cccc3c2OC(CNC(=O)c2ccccc2-n2cccn2)C3)nn1 (stereo not given) 8.78%
COc1ccc(-c2nc3cnc(N(C)C)nc3n(CCc3ccccc3)c2=O)cc1 24.1%
COc1ccc(-c2nc3cnc(N4CCOCC4)nc3n(CCC#N)c2=O)cc1 68%
NC[C@H]1O[C@@H](n2cnc3c(N)ncnc32)[C@H](O)[C@@H]1O 8.98% [at 75.8 µM]
CC1(C)C(O)CC[C@]2(C)C1CC[C@@]1(C)C2C(=O)C=C2[C@@H]3C[C@@](C)(C(=O)O)CC[C@@]3(C)CCC21C (stereo not given in full) 16.9%
Cc1cccc2c(N3CCCC3)nc(CNS(=O)(=O)c3ccccc3Cl)nc12 -2.99%
COc1cccc(Nc2ncc3nc(-c4ccc(F)cc4)c(=O)n(CCC#N)c3n2)c1 28.9%
c1cnc2cc3c(cc2n1)[C@@H]1CNC[C@H]3C1 6.41%
O=c1cc(-c2ccccc2)oc2cc(O[C@@H]3O[C@H](CO)[C@@H](O)[C@H](O)[C@H]3O)c(O)c(O)c12 -17.8%
COc1ccc(-c2nc3cnc(N(C)C)nc3n(CCC#N)c2=O)cc1 6%
O=C(Cn1ccnc1[N+](=O)[O-])NCCO 15%
CC(=O)OC1CCC2(C)C3=C(CCC2C1(C)C)[C@]1(C)CCC(C(C)CCC=C(C)C)[C@]1(C)CC3 (stereo not given in full) -22.3%
CCCCCCCCCCCCCCCC(=O)NC(C)C 6.03%
COC(=O)c1c(OCCN2CCCCC2)cc(=O)n2c1CCN(Cc1cccc3nccnc13)CC2 -0.569%
Cc1cnc(CNc2ncncc2-c2ccc3c(c2)OCO3)cn1 12.8%
O=C(O)Cc1csc(-c2ccc(Cl)cc2)n1 19.6%
C=C1C(=CC=C2CCC[C@]3(C)[C@@H]([C@H](C)C=C[C@H](C)C(C)C)CC[C@@H]23)C[C@@H](O)C[C@@H]1O -26.5%
Cc1ccccc1C(=O)N1CC/C(=N\OS(=O)(=O)O)c2ccc(Cl)cc21 37.7%
CCOc1cccc(C(=O)c2ccc(O)c(O)c2O)c1 -26%
O=C(C[n+]1ccc(/C=C/c2c[nH]c3ccccc23)c2ccccc21)c1ccccc1 6.98%
COc1cc2c(cc1OC)C1CCC3=C([C@H](C)OC3=O)N1CC2 (stereo not given in full) 28%
CC(=O)OCC1=C(C(=O)O)N2C(=O)C(NC(=O)Cc3cccs3)C2SC1 (stereo not given) 17.2%
c1ccc(CNc2cc(-c3cccnc3)ncn2)cc1 17.2%
CN(C)c1ccc(/C=C/c2sc3ccccc3[n+]2CCCCBr)cc1 12%
COC(=O)N1CCC2(CC1)CCN(c1cccc(-c3ccccc3)c1)CC2 -19.1%
O=c1cc(-c2ccc(O)cc2)oc2cc(O)cc(O)c12
COc1ccccc1-c1nc(NCCc2cnc[nH]2)c2ccccc2n1 -13.3%
COc1cccc(Cn2c(=O)c(CCc3ccccc3)nc3cnc(N(C)C)nc32)c1 26.9%
O=C1CC[C@@H]2C[C@@]3(C[C@@H]4CCN1[C@H]24)Nc1cc([N+](=O)[O-])ccc1NC3=NCc1ccccc1 7.89%
Cc1cccc(CNc2ncncc2-c2cccc(C#N)c2)c1 18.4%
O=C(NCCc1ccccc1)[C@@H]1CC=C[C@@H]2CCN(C3CCCCC3)C(=O)[C@@H]21 -26.3%
C[C@H](CCC(=O)NCC(=O)O)C1CC[C@H]2C3CC[C@@H]4C[C@H](O)CC[C@]4(C)C3C[C@H](O)[C@]12C (stereo not given in full) 42.4%
COCc1ccc(CN2Cc3ccccc3OC(c3ccccc3F)C2)o1 (stereo not given) 2.35%
CC(C)NC[C@@H](O)COc1ccc(CCOCC2CC2)cc1 11.9%
COc1ccc(CN2CCC3(CCC(CNC(=O)c4ccco4)O3)CC2)cc1OC (stereo not given) 9.2%
CC(C)NCC(O)COc1ccc(COCCOC(C)C)cc1 (stereo not given)
COc1ccccc1C(=O)N[C@@H]1c2ccccc2C2(CCN(C(=O)c3ccnn3C)CC2)[C@H]1OC 22.6%
Nc1nc(=S)c2ncn([C@@H]3O[C@H](CO)[C@@H](O)[C@H]3O)c2[nH]1 24.9%
c1csc(CNc2cc(-c3ccoc3)ncn2)c1 7.38%
CC1OC(OCC2OC(Oc3c(-c4ccc(O)c(O)c4)oc4cc(O)cc(O)c4c3=O)C(O)C(O)C2O)C(O)C(O)C1O (stereo not given) -18.2%
C#CCCCCCCCCCCCC(O)CC(O)CO (stereo not given) -2.07%
CC[C@H]1OC(=O)[C@H](C)[C@@H](O[C@H]2C[C@@](C)(OC)[C@@H](O)[C@H](C)O2)[C@H](C)[C@@H](O[C@@H]2O[C@H](C)C[C@H](N(C)C)[C@H]2O)[C@](C)(O)C[C@@H](C)[C@@H]2N[C@@H](COCCOC)O[C@@H]([C@H]2C)[C@]1(C)O 30%
COc1ccccc1-c1ccnc(-n2ncc(C(=O)NCCc3ccncc3)c2C)n1 9.11%
COc1ccccc1-n1cc(C(=O)NCCN2Cc3ccccc3OC(c3ccsc3)C2)cn1 (stereo not given) 0.854%
COC(C)C(C(=O)OCC1=CCN2CC[C@H](O)[C@@H]12)C(C)C (stereo not given in full) 25.2%
CN(C)c1ccc(-c2cc(NCc3cccnc3)ncn2)cc1 4.33%
Cc1sc2ccccc2[n+]1CC(=O)c1ccc(F)cc1 11%
COc1ccc2[nH]cc(CCNc3ncncc3-c3ccccc3C(F)(F)F)c2c1 -17.2%
NC(N)=Nc1nc(CSCC/C(N)=N\S(N)(=O)=O)cs1 17.2%
CC(C)=CCCC(C)CCO (stereo not given) -4.05%
CN(C)c1cc(-c2cccc(NS(C)(=O)=O)c2)ncn1 12.6%
CCCCC[C@H](O)/C=C/[C@@H]1[C@@H](C/C=C\CCCC(=O)O)[C@@H](O)C[C@@H]1O 8.34% [at 15.3 µM]
COc1ccc2[nH]cc(CCNc3ncncc3-c3ccccc3Cl)c2c1 -17%
Nc1nc(Cl)nc2c1ncn2[C@@H]1O[C@H](CO)[C@@H](O)[C@@H]1F 17.6%
CCCCCCCCCCCCCCCCOCC(CO)OC(C)=O (stereo not given) 7.67% [at 15.3 µM]
Cc1oc(-c2ccccc2NC(=O)c2ccccc2)nc1CNC(=O)C1CC(=O)OC12CCCCC2 (stereo not given) -11.7%
COc1cc2ccc(=O)oc2c(OC)c1OC 3.39%
CC(C)C(=O)OCC(=O)[C@@]12O[C@H](C3CCCCC3)O[C@@H]1C[C@H]1[C@@H]3CCC4=CC(=O)C=C[C@]4(C)[C@H]3[C@@H](O)C[C@@]12C 9.32%
N#CCCn1c(=O)c(-c2ccc(F)cc2)nc2cnc(OCc3ccccc3)nc21 12.4%
O=C(NCc1cccnc1)c1cnn(-c2nccc(-c3cccs3)n2)c1C1CC1 5.69%
CN(C)C(=O)c1ccc(-c2ccc3ncnc(N4CCOCC4)c3c2)cc1 1.04%
Cc1ccc(C(=O)Nc2cccc(-c3nc(CNC(=O)C4(C)CC4)c(C)o3)c2)s1 18.6%
